Results as given in PubChem BioAssay AID2546 (National Center for Advancing Translational Sciences (NCATS), 2010).
The campaign covered roughly 310,000 compounds. About 11,000 (3.5%) were called active. Inconclusive means that the source gave no clear call. Such entries were picked first, then a sample of the others. Calls come from the whole dose curve; as a rule, active = well fitted inhibition curve with a large enough effect; inconclusive = small, poorly fitted or top-dose-only effect, or effect the other way; inactive = flat fitted curve, though single readings scatter. No potency is given beside an inconclusive call; the fits are too rough.
Potency is the fitted concentration of half-maximal effect; tags give direction and shape of the fitted curve.

Assay: VP16 counterscreen qHTS for inhibitors of ROR gamma transcriptional activity;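 note: Gal4-VP16 expression switched on by copper sulfate through the metallothionein promoter; nearly all actives have a fitted effect of over 50% in size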
Conditions: Drosophila S2 Gal4-VP16 UAS-luciferase, luminescence, 20 h; series mostly up to 53.6 µM
For `S=C(NCc1ccc(Cl)cc1)NCc1ccccn1`, the Potency was inconclusive [inhibitor, single point]. For `CC(=O)c1cc2c(cc1NC(=O)c1cc3nc(C(C)C)cc(C(F)(F)F)n3n1)OCO2`, the Potency was “inactive”. For `O=C(Nc1ccc(N2CCCCC2)cc1)c1ccc(F)cc1`, the Potency was inconclusive [inhibitor, single point]. With `O=C(CC1NCCc2ccccc21)Nc1ccc(Oc2ccccc2)cc1` (stereo unspecified) the Potency was inconclusive [activator, single point]. In the case of `CCOc1ccc2nc(/N=C/c3c(C)[nH]n(-c4ccc(C)cc4)c3=O)sc2c1`, the Potency is reported as inconclusive [activator, partial curve]. In the case of `Cc1ccnc(Nc2nc(-c3ccc(O)c(O)c3)cs2)c1`, the Potency is reported as active: 5.62 µM. For `O=C1N/C(=C\c2ccc(O)cc2)C(=O)c2ccccc21`, the Potency was active: 10 µM. In the case of `CC1CCc2c(c3ccccc3n2C(=O)CCl)C1` (stereo unspecified), the Potency is reported as inconclusive [inhibitor, single point]. For `CCCNC(=O)/C(C#N)=C1\N=C(NC(=O)c2ccco2)c2ccccc21`, the Potency was inconclusive [inhibitor, single point]. In the case of `CC1(C)OC2OC(COC(=O)c3ccccc3)C3OC(C)(C)OC3C2O1` (stereo unspecified), the Potency is reported as inconclusive [activator, full curve, poor fit]. In the case of `O=C(O)c1c(Cl)c(Cl)c(Cl)c(Cl)c1-c1c2cc(I)c(=O)c(I)c-2oc2c(I)c(O)c(I)cc12`, the Potency is reported as inconclusive [inhibitor, partial curve]. With `CCN(CC)c1ccc(N)cc1` the Potency was inconclusive [inhibitor, single point]. In the case of `FC(F)Oc1ccccc1NC(=S)Nc1cccc(Cl)c1Cl`, the Potency is reported as inconclusive [inhibitor, single point]. For `COc1ccc(/C=C2\CCCC3C2=NC(=S)NC3c2ccc(OC)cc2)cc1` (stereo unspecified), the Potency was active: 12.6 µM. With `Cc1ccc(C)c(N2CCN(C(=O)c3cc(S(=O)(=O)N4CCOCC4)cn3C)CC2)c1` the Potency was inconclusive [inhibitor, single point]. With `Cc1cc2nc(CCN(C(=S)NCC3CCCO3)C3CCCC3)[nH]c2cc1C` (stereo unspecified) the Potency was inconclusive [inhibitor, single point]. With `CC1SC(C)C(=O)N(CC(=O)NC2CCCCC2)C1=O` (stereo unspecified) the Potency was “inactive”. For `Cn1c(=NC(=O)c2cnccn2)sc2ccccc21`, the Potency was inconclusive [inhibitor, single point]. In the case of `COc1cc2ccccc2cc1C(=O)N(CCN(C)C)c1nc2c(OC)ccc(OC)c2s1`, the Potency is reported as inconclusive [inhibitor, single point]. For `COc1ccccc1CNC(=O)[C@H](CCSC)NC(=O)[C@@H]1Cc2ccccc2CN1`, the Potency was “inactive”. With `c1ccc(-c2cc3c(NCC4COc5ccccc5O4)ncnc3s2)cc1` (stereo unspecified) the Potency was inconclusive [inhibitor, single point]. For `COc1cc(CN2CCC(Cc3ccccc3)CC2)cc(OC)c1OC`, the Potency was “inactive”. In the case of `Cc1cccc(NC(=S)N2CCCCCC2)c1`, the Potency is reported as inconclusive [inhibitor, single point]. In the case of `O=C(NCc1ccccn1)C1CCN(S(=O)(=O)N2CCC3(CC2)OCCO3)CC1`, the Potency is reported as “inactive”. With `Cc1ccc(-c2cc3c(N=O)c4ccccc4c-3n[nH]2)cc1` the Potency was inconclusive [inhibitor, partial curve]. With `COC(=O)Cc1cc(=O)n2[nH]cnc2n1` the Potency was inconclusive [inhibitor, partial curve, poor fit]. For `COC(=O)c1ccc(Oc2c(F)c(F)nc(N3CCOCC3)c2F)cc1`, the Potency was inconclusive [inhibitor, single point]. For `Fc1cc(Br)ccc1Nc1nc2ccccc2n2nnnc12`, the Potency was inconclusive [inhibitor, single point]. For `CCOC(=O)c1sc(NC(=O)CSc2ccccn2)c(C#N)c1C`, the Potency was “inactive”. With `CCC(C)NCCCCOc1ccc(C)cc1[N+](=O)[O-]` (stereo unspecified) the Potency was “inactive”. For `C/C(=N\NC(=O)COc1ccc(C#N)cc1)c1ccccc1OC(F)F`, the Potency was active: 15.8 µM. With `O=C1COc2ccc(C(=O)CCl)cc2N1` the Potency was inconclusive [inhibitor, single point]. With `CN1CCN(c2ccc(NC(=O)COc3ccc4ccccc4c3)cc2)CC1` the Potency was inconclusive [inhibitor, single point]. For `COc1cccc(C(=O)NC(=S)Nc2nnn(C)n2)c1`, the Potency was active: 11.2 µM. With `O=S(=O)(c1ccccc1)c1nnn2c1nc(NC1CCN(Cc3ccccc3)CC1)c1cc(Cl)ccc12` the Potency was inconclusive [inhibitor, partial curve]. In the case of `CCCC(C)NC(=S)NC(=O)c1cc(S(=O)(=O)N2CCOCC2)ccc1C` (stereo unspecified), the Potency is reported as inconclusive [inhibitor, single point]. For `C/C(=N\NC(=O)C1CC1)c1ccccc1Br`, the Potency was active: 10 µM. In the case of `CCNC(=S)N/N=C1\C(=O)c2cccc3cccc1c23`, the Potency is reported as active: 4.47 µM. For `COc1cc(/C=C(\C#N)c2nc3ccccc3[nH]2)cc(Br)c1OCc1ccccc1`, the Potency was inconclusive [inhibitor, single point]. With `CN(C)c1cccc2c(/C=N/O)ccc(N(C)C)c12` the Potency was “inactive”. With `Cc1ccccc1NC(=S)NCc1ccc2c(c1)OCO2` the Potency was active: 10 µM. For `CCCC(=O)c1ccc(N2CCN(C(=O)c3ccccc3)CC2)c(F)c1`, the Potency was inconclusive [inhibitor, single point]. In the case of `CCCCC(CCCCl)C(=O)Nc1ccccc1` (stereo unspecified), the Potency is reported as “inactive”. For `O=c1[nH]c(SCc2nc3ccccc3n2Cc2ccccc2)nc2ccccc12`, the Potency was inconclusive [inhibitor, single point]. In the case of `CCOC(=O)N1CCC(n2c(=S)[nH]c3ccccc3c2=O)CC1`, the Potency is reported as active: 7.08 µM. With `O=C(/C=C/Nc1ccccc1C(=O)O)c1cccs1` the Potency was inconclusive [inhibitor, partial curve, poor fit]. With `CC(/C=C1\SC(=S)N(NC(=O)c2ccc(O)cc2)C1=O)=C\c1ccccc1` the Potency was inconclusive [inhibitor, partial curve, poor fit]. With `Cc1ccc(-c2cc(-c3ccccc3)no2)c(O)c1` the Potency was inconclusive [inhibitor, single point]. For `Cc1cnc(NC(=O)C2COc3ccccc3O2)s1` (stereo unspecified), the Potency was active: 8.91 µM. For `CC(C)C[C@H](NC(=O)c1nc[nH]c1C(=O)N1CCN(C(=O)OC(C)(C)C)CC1)C(=O)OCc1ccccc1`, the Potency was inconclusive [inhibitor, single point]. In the case of `Cn1c(=O)c2c(nc(CN3CCN(Cc4ccccc4)CC3)n2Cc2cccc(Cl)c2)n(C)c1=O`, the Potency is reported as “inactive”. For `COc1ccc(C(=O)Sc2nncc3ccccc23)cc1`, the Potency was inconclusive [inhibitor, single point]. For `O=C(CSc1nc(-c2ccccc2)nc2ccccc12)Nc1nccs1`, the Potency was inconclusive [inhibitor, single point]. In the case of `Cc1ccc(NC(=S)N2CCN(C3CCCCC3)CC2)cc1`, the Potency is reported as “inactive”. With `O=c1[nH]c2c(cc1CNCCN1CCOCC1)c(-c1cccc(F)c1)nn2-c1ccccc1` the Potency was inconclusive [inhibitor, single point]. With `CC(C)c1ccc(N2CCN(C(=O)c3ccccc3NC(=O)/C=C(\C(=O)O)c3ccccc3)CC2)cc1` the Potency was active: 1.12 µM. For `COc1cc(/C=N/NC(=S)NCCN2CCOCC2)cc(OC)c1O`, the Potency was inconclusive [inhibitor, single point]. With `Cc1ccc(O)c(NC(=S)NC(=O)COc2ccc(Br)cc2)c1` the Potency was inconclusive [inhibitor, single point]. In the case of `Cc1ccc(Cn2c(C)c3cnn(CC(=O)NC4CCCC4)c(=O)c3c2C)cc1`, the Potency is reported as inconclusive [inhibitor, full curve]. In the case of `COc1cc(C(=O)CCN2CCC(c3ccccc3)C2)cc(OC)c1OC` (stereo unspecified), the Potency is reported as inconclusive [inhibitor, single point]. In the case of `COc1ccccc1N1CCN(C(=S)NC(=O)/C=C/c2ccccc2)CC1`, the Potency is reported as active: 7.08 µM. In the case of `Cn1cccc1/C=N/n1c(-c2ccc(Cl)cc2Cl)n[nH]c1=S`, the Potency is reported as inconclusive [inhibitor, full curve]. In the case of `CC(=O)c1ccc(N2CCN(C(=S)Nc3cc(C)ccc3C)CC2)cc1`, the Potency is reported as inconclusive [inhibitor, single point]. With `Cn1cc(/C=N\NC(=O)c2cccs2)c2ccccc21` the Potency was inconclusive [inhibitor, single point]. With `Cc1ccc(-c2cc(C(=O)N/N=C/c3ccccc3O)n[nH]2)o1` the Potency was inconclusive [inhibitor, single point]. For `Cc1cccc(-n2cnc3cc(C(=O)N4CCc5ccccc54)ccc32)c1`, the Potency was inconclusive [inhibitor, partial curve, poor fit]. In the case of `COCCCNC(=S)NC1CCCCC1`, the Potency is reported as inconclusive [inhibitor, single point]. For `CCC(SC1=N/C(=C/c2ccccc2)C(=O)N1c1ccccc1)C(=O)Nc1cc(C)on1` (stereo unspecified), the Potency was “inactive”. For `S=C(NCCc1ccccn1)Nc1ccc(Cl)cc1Cl`, the Potency was inconclusive [inhibitor, single point]. For `Cc1cc(OCc2cc(C(=O)N(C)C(C)c3ccccn3)no2)cc(C)c1Cl` (stereo unspecified), the Potency was inconclusive [inhibitor, partial curve]. In the case of `COC(=O)c1cc2sccc2n1Cc1nc(-c2cccc(Cl)c2)oc1C`, the Potency is reported as inconclusive [inhibitor, single point].
